# Hit rate of the full screen: of about 310,000 compounds, about 2,200 (0.71%) showed an effect of 50% or more. Effects have a minus sign here. The list shows a part of the results.
# Molecular target: human ether-à-go-go-related gene (hERG) potassium channel (human, UniProt Q12809)
# Experiment: primary screen, population patch clamp on CHO cells stably expressing hERG
# Chain of human ether-à-go-go-related gene (hERG) potassium channel (Q12809 whole entry, looked up): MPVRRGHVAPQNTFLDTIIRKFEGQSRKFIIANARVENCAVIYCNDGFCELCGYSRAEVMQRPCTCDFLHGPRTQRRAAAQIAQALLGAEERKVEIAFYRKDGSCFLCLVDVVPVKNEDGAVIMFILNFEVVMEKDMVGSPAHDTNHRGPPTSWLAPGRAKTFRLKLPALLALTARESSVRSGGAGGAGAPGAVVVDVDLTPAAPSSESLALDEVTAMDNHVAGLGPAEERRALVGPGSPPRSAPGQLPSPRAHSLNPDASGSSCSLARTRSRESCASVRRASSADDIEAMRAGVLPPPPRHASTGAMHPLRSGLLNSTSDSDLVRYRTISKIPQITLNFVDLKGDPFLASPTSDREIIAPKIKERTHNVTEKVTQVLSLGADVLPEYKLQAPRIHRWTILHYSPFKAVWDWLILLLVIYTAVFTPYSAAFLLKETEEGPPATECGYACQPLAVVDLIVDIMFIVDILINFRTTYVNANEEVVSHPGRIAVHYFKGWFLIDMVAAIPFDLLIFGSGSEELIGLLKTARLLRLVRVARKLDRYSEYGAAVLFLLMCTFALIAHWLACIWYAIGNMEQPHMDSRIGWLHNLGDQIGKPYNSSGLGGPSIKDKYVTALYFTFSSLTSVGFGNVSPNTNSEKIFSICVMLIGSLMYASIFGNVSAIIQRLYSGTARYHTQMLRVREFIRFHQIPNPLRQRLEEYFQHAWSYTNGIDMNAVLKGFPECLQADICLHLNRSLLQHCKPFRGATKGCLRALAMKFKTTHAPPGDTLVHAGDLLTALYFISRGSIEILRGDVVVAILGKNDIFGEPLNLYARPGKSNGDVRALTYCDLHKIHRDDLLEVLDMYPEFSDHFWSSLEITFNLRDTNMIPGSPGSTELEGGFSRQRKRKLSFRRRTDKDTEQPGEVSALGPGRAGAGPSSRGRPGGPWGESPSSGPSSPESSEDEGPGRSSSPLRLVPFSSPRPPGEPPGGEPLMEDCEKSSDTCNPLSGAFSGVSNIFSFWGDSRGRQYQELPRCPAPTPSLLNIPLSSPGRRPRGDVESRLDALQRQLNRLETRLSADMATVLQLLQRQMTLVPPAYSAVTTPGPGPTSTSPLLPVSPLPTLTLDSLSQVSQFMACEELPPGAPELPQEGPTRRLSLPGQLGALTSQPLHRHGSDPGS
row,SMILES,"hERG current change (%, negative = inhibition) at 1uM [%]"
1,CCOC(=O)c1c(NC(=O)CSc2nnnn2-c2ccccc2)sc2c1CC(C)(C)NC2(C)C,-7.13
2,Cc1ccnc(NS(=O)(=O)c2ccc(NS(=O)(=O)c3ccc([N+](=O)[O-])cc3)cc2)n1,5.17
3,O=C(COc1ccccc1F)NCC(c1ccco1)N1CCCC1 (centres unmarked),23.5
4,COc1ccc(C(=O)NCCn2cc(SCC(=O)Nc3nnc(C)s3)c3ccccc32)cc1,0.37
5,COc1cc(-c2nc3ccc(C)cn3c2Nc2ccc3c(c2)OCCO3)ccc1O,13.4
6,COc1ccc(S(=O)(=O)N(CCc2ccccc2)CC(=O)O)cc1C,7.44
7,CCOc1ccc(C(=O)N(CC)CC(=O)Nc2ccc3c(c2)OCCO3)cc1,-4.73
8,Cc1cc(=O)n(C)c(=O)n1CCCCCCOc1ccc([N+](=O)[O-])cc1,-11.1
9,Cc1cc(C(=O)NP(=O)(N2CCOCC2)N2CCOCC2)c(C)n1-c1ccc(N(C)C)cc1,4.45
10,COc1ccc(NC(=O)N[C@@H](CCSC)C(=O)O)cc1Cl,-7.84
11,CN(C)c1ccc(S(=O)(=O)N2CCCCC2)cc1NC(=O)C1=NN(c2ccccc2)C(=O)CC1,1.1
12,Cc1ccc(-c2cc(C(=O)OCn3nnc4ccccc4c3=O)c3ccccc3n2)cc1,15.9
13,CCOC(=O)C1CCN(C(=O)C2CCN(S(=O)(=O)c3cc(Cl)ccc3OCC)CC2)CC1,16.6
14,Cc1ccc2[nH]c(=O)c3cc(C(=O)N(C)C4CCCCC4)sc3c2c1,21.5
15,Cc1nn(-c2ccc(N3CCOCC3)nn2)c(C)c1CCC(=O)Nc1ccccc1,8.09
16,CC(C)C(NC(=S)Nc1ccccc1)C(=O)O (centres unmarked),9.14
17,COCCCN(C(=O)Cn1ncc2c(=O)oc3ccc(C)cc3c21)C(C)c1ccncc1 (centres unmarked),0.794
18,COC(=O)c1ccc(NC(=O)Cn2nnc(-c3cccs3)n2)cc1,13.1
19,O=C(N/N=C/c1ccc(O)cc1)Nc1cccc2nsnc12,12.8
20,Cc1c(Cl)cccc1NC(=S)NCc1ccc2c(c1)OCO2,7.62
21,O=C(CN(C(=O)c1csnn1)c1ccc(Br)cc1)NC1CCCC1,5.09
22,Oc1ccc(/C=N/Nc2ncnc3c2ncn3Cc2ccccc2)cc1O,7.4

row,SMILES,"hERG current change (%, negative = inhibition) at 1uM [%]"
1,Fc1cccc(Cl)c1C1Nc2cccc3cccc(c23)N1,6.56
2,O=C(N/C(=C\c1ccc(Br)cc1)C(=O)N1CCOCC1)c1ccc([N+](=O)[O-])cc1,-81.6
3,CC(C)(C)NC(=O)CN(Cc1ccc2c(c1)OCO2)C(=O)CNS(=O)(=O)c1ccc(F)cc1,12.9
4,COC(=O)c1cc2n(n1)CCN(Cc1ccccc1F)C2=O,5.99
5,CC1Cc2ccccc2N1C(=O)Cn1nc(C(=O)O)c2ccccc2c1=O (centres unmarked),7.67
6,Cc1cc(=O)[nH]c(N/N=C/c2ccc(OC(=O)c3cccnc3)cc2)n1,7.54
7,CSC(=NC#N)N1CCN(c2ccccn2)CC1,8.36
8,Cc1ccccc1NC(=O)C1CCC(=O)N1 (centres unmarked),10.3
9,COc1ccc(C2(C(=O)Nc3ccc(C)cc3)CCOCC2)cc1,13.9
10,COc1ccc(S(=O)(=O)N2CCC(C(=O)NCCCN3CCOCC3)CC2)cc1,0.202
11,CC(C)CN(C(=O)c1cccc(S(=O)(=O)N2CCN(c3ccc(F)cc3)CC2)c1)C1CCS(=O)(=O)C1 (centres unmarked),8.49
12,Cc1ccc(Sc2cc(Cl)nc(N)n2)cc1,12.1
13,CC(=O)Nc1nc2cccc([N+](=O)[O-])c2s1,13.4
14,O=C(COC(=O)C1=Cc2ccccc2OC1)NCc1ccccc1,4.1
15,COc1ccc(Cl)cc1NC(=S)N1CCN(S(C)(=O)=O)CC1,2.35
16,O=C1CC(=O)N(c2ccc(Cl)cc2)C(=O)N1,17.1
17,O=C(CSc1ccccn1)Nc1ccc2ccccc2c1,3.68
18,CCCN1CCCc2cc(CN(CCCN3CCOCC3)C(=O)Nc3ccc(OCC)cc3)ccc21,0.472
19,COc1cccc(NC(=O)C(Sc2nc3ccccc3c(=O)n2CC(C)C)c2ccccc2)c1 (centres unmarked),6.46
20,OCC[C@H]1C[C@H](O)[C@@H](O)[C@@]2(CCCCO2)O1,22
21,O=C(Nc1cccc(-c2nc3ncccc3o2)c1)c1ccccc1,8.32
22,COc1ccc(N2CCN(S(=O)(=O)c3ccc(OC)c(C(=O)N4CCCC4)c3)CC2)cc1,11.4

row,SMILES,"hERG current change (%, negative = inhibition) at 1uM [%]"
1,O=C(NCCc1ccccc1)c1c[nH]c2c(F)cccc2c1=O,17.6
2,CCCn1c(N)c(N(CCOC)C(=O)c2cc3c(s2)CCCCC3)c(=O)[nH]c1=O,4.22
3,COc1ccc(N(C(=O)c2ccccc2)S(=O)(=O)c2cccs2)cc1,20.8
4,CSCC[C@H](NC(=O)OCc1ccccc1)C(=O)O,6.64
5,COC(=O)CNC(=O)c1cc(OC)cc(OC)c1,12.9
6,O=C(Cn1nc(Cc2cccnc2)c2ccccc2c1=O)Nc1ccccc1F,7.93
7,CCN(CC)S(=O)(=O)c1cccc(NC(=O)COC(=O)c2cc(=O)c3ccccc3o2)c1,7.42
8,Cc1cccc(C)c1NC(=O)CNC(=O)c1ccc(COc2ccccc2)cc1,10.7
9,COc1ccc(N=Nc2nc3cc(Br)c(Br)cc3n2C)c(OC)c1,1.6
10,O=S(=O)(c1cccnc1)N1CCn2cccc2C1c1ccccc1F (centres unmarked),8.59
11,COc1ccc(N2CCN(C(=O)CCNC(=O)c3ccc(C(C)(C)C)cc3)CC2)cc1,5.7
12,Cc1ccc(SCc2c(C(=O)N/N=C/c3ccncc3)nnn2-c2nonc2N)cc1,23
13,Cc1cc(C)n(-c2ccc(C(=O)Nc3cc(C(F)(F)F)ccc3N3CCOCC3)cc2)n1,10.8
14,C/C(=N/NC(=O)c1ccc(Br)o1)c1cccc(NC(=O)c2ccc(C)o2)c1,-58
15,CCN(CCO)c1nc(NCc2ccccc2)c2cnn(C)c2n1,9.25
16,COC(=O)c1nn(-c2ccc3c(c2)CCN3C(C)=O)cc1O,10.1
17,CCCC(=O)Nc1ccc(C(=O)N/N=C/c2ccc([N+](=O)[O-])o2)cc1,15.1
18,Cc1ccc(-n2c(=O)c3sccc3n(CC(=O)NCc3ccco3)c2=O)cc1,6.71
19,CCCCn1c(SCC(=O)NC2CC2)nc2ccccc2c1=O,1.37
20,CCn1c(SCC(=O)NCc2ccccc2)nnc1C(CO)NC(=O)c1ccccc1 (centres unmarked),11.3
21,CCOC(=O)c1c(-c2ccc(C)o2)csc1NC(=S)NC(=O)N(C)C,3.27
22,CCOCCCNC(=O)COC(=O)/C=C/c1ccc(S(=O)(=O)N2CCc3ccccc32)cc1,21.7

row,SMILES,"hERG current change (%, negative = inhibition) at 1uM [%]"
1,C#CCOCCOCCOCCNc1nc(N2CCOCC2)nc(N2CCN(C(=O)[C@H]([C@@H](C)CC)n3cc([C@@H](N)Cc4ccc(O)cc4)nn3)CC2)n1.Cl,4.49
2,C=CCSc1nc2c(c(=O)[nH]1)C(C(C)C)C(C#N)=C(N)O2 (centres unmarked),6.29
3,COc1cc(C(=O)NCC(=O)OCCN2C(=O)c3ccccc3C2=O)cc(OC)c1OC,2.5
4,Cc1ccc(S(=O)(=O)CC(=O)N2CCCCCC2)cc1,8.52
5,C/C(=N\Nc1cc(Cl)nc(C)n1)c1ccc(C)cc1,8.72
6,O=C(CN(C(=O)CNS(=O)(=O)c1ccccc1)c1ccc2c(c1)OCCO2)NC1CCCCC1,10.8
7,CCOC(=O)N1CCC(Nc2cccc(SC)c2)CC1,11.3
8,CCCCNC(=O)CCCCCNS(=O)(=O)c1ccc(Br)cc1,-26.3
9,O=S(=O)(N/N=C/c1ccc(Cl)cc1)c1ccc(Cc2ncc(C(F)(F)F)cc2Cl)s1,10.1
10,CC[n+]1ccc(/C=C2\Sc3ccccc3N2CCCS(=O)(=O)[O-])c2ccccc21,13.6
11,Cc1cccnc1NC(=O)c1ccc2nc(N)sc2c1,12.3
12,C=CCN1C(=O)c2ccccc2Sc2ccc(C(=O)NC(C)C)cc21,17.6
13,O=C(CSc1ncnc2sccc12)Nc1ccccc1,37.3
14,CCCCn1c(N)c(N(CCC(C)C)C(=O)COC(=O)c2ccccc2)c(=O)[nH]c1=O,8.04
15,CN(c1ccc(C(=O)N2CCN(c3ccc(F)cc3)CC2)cc1)S(C)(=O)=O,-9.3
16,O=C(NCc1ccccn1)C1CCCCC1,6.06
17,CCOC(=O)C[C@H]1c2cc(F)ccc2S(=O)(=O)N1C1CCCC1,3.05
18,CC12CN3CCN(CC(C3)C1O)C2 (centres unmarked),8.93
19,CCCCn1c(=O)n(CC(=O)Nc2c(CC)cccc2CC)c(=O)c2c1nc(CO)n2CCC,2.58
20,CCOC(=O)c1sc(NC(=O)CSc2nnc(C(C)C)n2CC)nc1C,9.17
